# Test results: the supplement of paper PMC5499739
# The full ranking holds about 16,000 sequences; the median of “Z-score” is about -0.37, and the highest 2% start at about 3.2. The list shows a part of the results.
# System: RBM10 RRM1-ZnF (GST-tagged construct)
# Experiment: RNAcompete 7-mer binding Z-score; higher = stronger binding preference
# Protocol: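 RNAcompete: 20 pmol GST-tagged RBM10 RNA-binding constructs were incubated with a designed RNA pool of about 241,000 sequences up to 41 nt (1.5 nmol) on glutathione beads for 30 min at 4 °C and washed. Bound RNAs were identified by microarray hybridisation. Each RNA 7-mer is scored by a one-sided Z-score of its enrichment, computed over probes that contain the 7-mer within longer pool sequences.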
row,Sequence,RNAcompete 7-mer binding Z-score
1,CUAUUGG,0.0268
2,ACCUCUG,-0.792
3,AAUAAAA,-0.405
4,CGCUCGA,-0.565
5,CGGUCUA,-0.594
6,CUGGUCC,-0.467
7,CAACAUC,-0.5
8,UCGCACC,-0.665
9,GGGUCAA,1.28
10,CGCCCCG,-0.11
11,UGGUUUA,0.859
12,AGAGUCC,-0.617
13,GCACGGC,0.095
14,UCUUCUA,-0.837
15,UGGGCCG,1.11
16,UAAGGGG,3.27
17,CACCGGG,0.686
18,CGUUACA,-0.474
19,AGUGGUG,2.37
20,UAAUGAA,-0.175
21,CUUGGGU,1.38
22,CACUGGG,1.41
23,ACCGGCA,-0.454

row,Sequence,RNAcompete 7-mer binding Z-score
1,UUUCUCA,-0.834
2,AAAAGUU,-0.269
3,UGAGAGC,0.482
4,GACCAUU,-0.915
5,CCGCCUC,-0.717
6,UUUAACC,-0.733
7,GUCAUGC,-0.454
8,UAUUGGU,0.852
9,AUAUAUG,0.0658
10,UGCAUGA,-0.353
11,CACAGUC,-0.509
12,CACACUA,-0.493
13,ACGCGCG,-0.0317
14,CUCCAUC,-0.863
15,GGAUUGG,3.79
16,AAAUAGA,0.287
17,GUAUCGC,-0.162
18,GCUGAGC,0.209
19,CAUCUUU,-0.909
20,GUACUGC,-0.23
21,AGGGAGA,2.66
22,CCUAUGC,-0.691
23,AGGCCGA,-0.0999

row,Sequence,RNAcompete 7-mer binding Z-score
1,AAAGGGA,4.42
2,CGCACCU,-0.591
3,CGUCAGC,-0.529
4,AUGCAAC,-0.214
5,UGUCACA,-0.655
6,GUAGCUC,-0.246
7,ACAGGCU,0.287
8,CCCUUCA,-0.776
9,UGGCAGC,0.397
10,GGAUACU,1.06
11,AGCCGCA,-0.288
12,CAUGUGU,-0.0642
13,CGGCGCU,-0.311
14,ACACCUU,-0.763
15,ACCGGAC,-0.431
16,AAGCACC,-0.47
17,CGAAUGG,1.29
18,AUAUAGU,-0.139
19,UAACGGU,0.547
20,CUCGCAG,-0.11
21,UGUUAUA,-0.493
22,AGCUUCG,-0.655
23,GGGGUUG,3.76

row,Sequence,RNAcompete 7-mer binding Z-score
1,ACUCGUA,-0.607
2,AUCACAU,-0.457
3,CCAAUAG,-0.233
4,CUUAGGC,-0.48
5,GACUUGG,0.628
6,UAAGGAU,1.42
7,AUGGCUC,-0.227
8,UAAAUCU,-0.772
9,GCCUAGC,-0.62
10,GGAGUGG,4.84
11,AAGAGUC,-0.11
12,AGAUUCC,-0.72
13,AAUUGUC,-0.639
14,AAUCACC,-0.642
15,AAUCAGC,-0.464
16,UCGUGAC,-0.659
17,GACCCAA,-0.685
18,UGUAAUU,-0.36
19,CGCUUCA,-0.675
20,AUUACUA,-0.555
21,AAGGCGA,1.36
22,GCUGAUU,-0.285
23,AAAUGGA,3.63

row,Sequence,RNAcompete 7-mer binding Z-score
1,ACCUGUU,-0.971
2,UAACAGA,0.105
3,GCGUCUU,-0.61
4,GCUUUCA,-0.652
5,GAGUAGA,1.37
6,AACGGUC,0.0138
7,GUGGUGG,3.9
8,GGAGUAA,1.2
9,AGCAUAA,-0.292
10,AUAAGUC,-0.383
11,UUUCGUA,-0.779
12,UGUCCUG,-0.565
13,UGCACUG,-0.0772
14,UCCUAGG,-0.292
15,AGGCUAA,-0.0187
16,AGUGAGC,0.69
17,GCUCCUA,-0.678
18,AUUGCCA,-0.73
19,GACUAGU,-0.103
20,UACACCA,-0.552
21,CAAAAGC,-0.626
22,CUUCCGA,-0.847
23,GCCCUAG,-0.422

row,Sequence,RNAcompete 7-mer binding Z-score
1,AGAUACG,0.0593
2,GUUUGCA,-0.0804
3,GACUACC,-0.834
4,CCUGACA,-0.727
5,UAACAAA,-0.373
6,UACACUU,-0.62
7,CCUUGAU,-0.704
8,GGAGGGC,3.13
9,UGAGCUG,0.654
10,UCGGUGG,1.6
11,UUACCUU,-0.737
12,GAUGAAA,1.09
13,CCGGUUA,-0.171
14,AUGCCAA,-0.733
15,ACCCCCC,-0.158
16,GAAAGCG,0.855
17,CAGGGCG,2.02
18,AAUUUAG,-0.318
19,UAUAAAG,-0.0544
20,GAGGUUA,1.57
21,UCAUAGA,-0.623
22,AAAUCAA,-0.503
23,ACUAGGC,-0.392

row,Sequence,RNAcompete 7-mer binding Z-score
1,AGACUGA,-0.448
2,UCUUGCU,-0.815
3,UCGACGG,0.205
4,UUGUUAU,-0.6
5,GCGACGC,-0.171
6,GGGUCAG,2.55
7,GGCCAGG,1.12
8,GACUGCU,-0.795
9,UAGCUUU,-0.776
10,CCCGCUA,-0.724
11,GGAAGGU,4.23
12,GUGGUCU,0.54
13,GCGACUC,-0.529
14,AGGUUCG,0.371
15,CCAUUAG,-0.529
16,ACACGUA,-0.256
17,AUGUUUU,-0.613
18,CAAGUUU,-0.766
19,GUCCAAA,-0.457
20,CCAUAAA,-0.717
21,GGCACAG,0.891
22,GAAUAAC,-0.275
23,UAAUUGA,-0.444

row,Sequence,RNAcompete 7-mer binding Z-score
1,UCAAAGU,-0.545
2,CUGCUAG,-0.513
3,CACGGGC,0.316
4,CAGCGUA,-0.279
5,AAGUACG,0.0105
6,CGGUGAC,0.183
7,CUGUCUA,-0.821
8,ACGCGAA,-0.412
9,UUAGAUG,0.137
10,UUUUUGA,-0.409
11,AGGAAUG,2.25
12,UAAAAUA,-0.431
13,UCGGUUU,-0.227
14,GGCUCGC,-0.178
15,AUGCUAC,-0.578
16,UGAUCGC,-0.474
17,ACCGCGG,0.677
18,AUUAAGA,-0.214
19,AGGGCGU,1.19
20,AGCUGCA,-0.308
21,GACUAUA,-0.542
22,UAAGGAC,0.972
23,UUAAGCA,-0.513
